Experimental data: PubChem BioAssay AID1347120 (National Center for Advancing Translational Sciences (NCATS), 2019)
Out of some 390,000 compounds screened, about 930 (0.24%) were called active. Inconclusive means that the source gave no clear call. Such entries were picked first, then a sample of the others. Calls follow the shape of the dose curve; as a rule, active = well fitted activation curve with a large enough effect; inconclusive = small, poorly fitted or top-dose-only effect; inactive = no such curve, though single readings can be large or run the other way. Potencies of inconclusive entries are doubtful fits and often do not repeat.

assay: qHTS for Suppressors of FUS Proteinopathy: Primary screen using FUS-linked yeast assay; also: nearly all actives have a fitted effect of over 55% in size;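 as to growth rescue (activation): plate controls were DMSO vehicle for no effect and reference control for full effect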; conditions: S. cerevisiae FUS-expressing, OD600, 24 h; Potency: growth rescue; growth rescue (activation): at 76.6 µM (top of the series)
Method in brief: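 Quantitative HTS measuring growth restoration of FUS-toxic yeast. Galactose-induced cells (OD 0.005) were exposed 24hr at 30C to compounds at several concentrations, then absorbance at 600 nm was recorded.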
Potency is read from the fitted curve at half-maximal effect; tags tell the direction and shape of the fitted curve.

SMILES | growth rescue (activation) | Potency
COc1cc(/C=C/C(=O)c2ccccc2O)cc(OC)c1OC | inactive: -0.66% | –
CC(C)(C)c1ccc(C(=O)Nc2cc(-c3nc4ccccc4o3)ccc2Cl)cc1 | inactive: -10.7% | –
OC[C@@H]1CN(Cc2ccc(-c3ccccc3)cc2)C[C@H](n2cnc3c(NC4CCCC4)ncnc32)O1 | – | inconclusive: 35.5 µM [activator, single point]
O=C1[C@H]2[C@@H](c3ccccc3)N[C@]3(CCCN(Cc4ccc(F)cc4)C3=O)[C@H]2C(=O)N1Cc1ccccc1 | – | inconclusive: 35.5 µM [activator, single point]
COP(=O)(OC)c1nc(-c2cccc3ccccc23)oc1N1CCCCC1 | – | inconclusive: 31.6 µM [activator, single point]
COc1ccc(Cc2nc3ccc(C(=O)NCc4ccc(OC)cc4OC)cc3o2)cc1 | – | inconclusive: 35.5 µM [activator, single point]
CCCCCCCCN1C(=O)[C@H](CC(=O)N2CCSCC2)C[C@@]2(C(=O)OCC)CCCC=C12 | – | inconclusive: 8.91 µM [activator, partial curve]
C=CCN(c1ccccc1)S(=O)(=O)c1cc2c(cc1C)N(C)CCO2 | – | inconclusive: 31.6 µM [activator, partial curve]
Cc1c(CCO)c(=O)[nH]n1S(=O)(=O)c1ccccc1 | inactive: -7.02% | –
CSCCC(NC(=O)COc1ccccc1)C(=O)N(C)Cc1ccc(Cl)cc1Cl (centres undefined) | – | inconclusive: 31.6 µM [activator, single point]
O=C(NCC(c1ccco1)N1CCc2ccccc21)c1cccc(F)c1 (centres undefined) | – | inconclusive: 7.94 µM [activator, partial curve]
CCc1ccc(OCC(=O)O/N=C(\N)c2ccncc2)cc1 | inactive: -5.79% | –
CN=C1NN=C(c2cc(C)n(-c3ccc(Cl)cc3)c2C)CS1 | – | inconclusive: 35.5 µM [activator, partial curve, poor fit]
O=C(Nc1nc2ccc(S(=O)(=O)N3CCCC3)cc2s1)C1CCCO1 (centres undefined) | – | inconclusive: 35.5 µM [activator, partial curve, poor fit]
COc1ccccc1NC(=O)CN(C)S(=O)(=O)c1ccc2c(c1)c(=O)n(C)c(=O)n2C | inactive: -29.3% | –
CC(C)(C)NC(=O)CN(C(=O)CCN1CCCc2ccccc21)C(C)(C)C | – | inconclusive: 39.8 µM [activator, single point]
C[C@H](CO)N1C[C@H](C)[C@@H](CN(C)S(=O)(=O)c2cccc(F)c2)Oc2ncc(Br)cc2C1=O | inactive: 3.33% | –
Cc1cc(SCC(=O)N2CCC(c3noc4ccc(F)cc34)CC2)nc2ccccc12 | – | inconclusive: 44.7 µM [activator, partial curve, poor fit]
Fc1cccc2sc(N3CCCCC3)nc12 | inactive: -9.34% | –
CC(=O)N1CCc2cc(S(=O)(=O)NC(Cc3ccccc3)C(=O)Nc3cccc(C)c3)ccc21 (centres undefined) | – | inconclusive: 44.7 µM [activator, single point]
Cc1ccc(S(=O)(=O)N2CCC(=O)N(C(COCc3ccc(C(F)(F)F)cc3)Cc3ccccc3)CC2)cc1 (centres undefined) | – | inconclusive: 8.91 µM [activator, partial curve]
COc1ccccc1N1CCN(C(=O)c2ccc3[nH]c(C)c(C)c3c2)CC1 | – | inconclusive: 12.6 µM [activator, partial curve]

SMILES | growth rescue (activation) | Potency
Cc1nnc(N2C(=O)C(=O)/C(=C(/O)c3ccc4c(c3)OCCO4)C2c2cccc([N+](=O)[O-])c2)s1 (centres undefined) | – | inconclusive: 25.1 µM [activator, single point]
CSc1ccccc1OCc1cc(C(=O)N2CCN(C3CCCC3)C(=O)C2)no1 | – | inconclusive: 28.2 µM [activator, partial curve, poor fit]
Cc1ccc(S(=O)(=O)Cc2ccc(C(=O)N3CCc4ccccc4C3)o2)cc1 | – | inconclusive: 15.8 µM [activator, partial curve]
Cc1cc2oc(C(=O)N(Cc3ccccc3F)C3CCS(=O)(=O)C3)c(C)c2cc1Cl (centres undefined) | inactive: 24.4% | –
C=CCN1c2ccccc2[C@]23C[C@@H](C(=O)OC)N(C(=O)c4cc(C)oc4C)C2=NC(C(=O)OC)=C(C(=O)OC)[C@H]13 | – | inconclusive: 17.8 µM [activator, single point]
Cc1ccc(C(=O)N2NC(c3ccccc3F)C3C(=O)N(c4cccc(C)c4)C(=O)C32)cc1 (centres undefined) | – | inconclusive: 14.1 µM [activator, partial curve, poor fit]
Cc1ccc(C)c(N2CCN(C(=O)Cn3ncc4ccsc4c3=O)CC2)c1 | – | inconclusive: 14.1 µM [activator, partial curve]
CCOc1[nH]c(/N=C/c2ccco2)c(C#N)c1C#N | inactive: -17.1% | –
CCCCC1CCC(C(=O)NC2CCS(=O)(=O)C2)CC1 (centres undefined) | inconclusive: 53.6% [activator] | –
CCOc1ccc(-c2cc(C(=O)N3CCN(S(=O)(=O)c4cc(Cl)ccc4OC)CC3)[nH]n2)cc1 | – | inconclusive: 25.1 µM [activator, single point]
CC(C)NS(=O)(=O)c1ccc(CCC(=O)N2CCCC2)cc1 | inactive: -9.57% | –
CCCCCN(C(=O)CCC(=O)OCC(=O)NCc1ccc(OC)cc1)c1c(N)n(CCCC)c(=O)[nH]c1=O | inactive: 40.8% | –
COc1ccc(NC(=O)c2cc(C3CCCCN3C(=O)Cc3ccc(N(C)C)cc3)on2)c(C)c1 (centres undefined) | – | inconclusive: 31.6 µM [activator, single point]
COc1ccc(C(=O)CSc2nnc(-c3cnccn3)n2Cc2ccco2)cc1 | – | inconclusive: 22.4 µM [activator, partial curve, poor fit]
Cc1cc2c(NC3CCCCC3)ncnc2s1 | inactive: 8.93% | –
CCc1cccc(NC(=O)c2cc3c(=O)n(Cc4ccc(OC)cc4)ccc3nc2C)c1 | inactive: 17.3% | –
CCCSc1nnc2c(n1)OC(c1sccc1C)Nc1ccccc1-2 (centres undefined) | inactive: -12.6% | –
CC[C@@H](C)[C@H](NC(=O)OC(C)(C)C)c1nnc(S(=O)(=O)Cc2cc(C)ccc2C)o1 | inactive: 20.9% | –
COC(=O)[C@@]1(Cc2ccc(F)cc2)[C@H]2c3cc(C(=O)N(C)C)n(Cc4ccccc4)c3C[C@H]2CN1C(=O)c1ccccc1 | – | inconclusive: 28.2 µM [activator, single point]
CCOC(=O)c1c(NC(=O)c2cc3nc(-c4ccc(OC)cc4)cc(C(F)(F)F)n3n2)sc2c1CCC(C)C2 (centres undefined) | inactive: -4.81% | –
O=C(CSc1nc2ccccc2n1Cc1ccc(Cl)cc1)N/N=C/c1ccccc1C(=O)O | – | inconclusive: 31.6 µM [activator, partial curve, poor fit]
CC(C)(C)NC(=O)C(c1cccc2ccccc12)n1c(=O)c(-c2ccco2)nc2ccccc21 (centres undefined) | – | inconclusive: 28.2 µM [activator, single point]

SMILES | growth rescue (activation) | Potency
CCOc1ccccc1N1CCN(C(=O)c2cccc(-c3ccc(O)cc3)c2)CC1 | – | inconclusive: 14.1 µM [activator, partial curve, poor fit]
CC(OC(=O)c1cccc(NS(C)(=O)=O)c1)C(=O)Nc1ccc(N2CCOCC2)cc1 (centres undefined) | – | inconclusive: 44.7 µM [activator, partial curve, poor fit]
CCn1c2ccccc2c2cc(/C=N/n3cnnc3)ccc21 | inactive: -0.765% | –
Cc1cc(C)cc(NCc2ccncc2)c1 | – | inconclusive: 35.5 µM [activator, single point]
CC(C)C(=O)N1CC[C@H]2[C@H](CCCN2Cc2ccccc2)C1 | inactive: -20.5% | –
O=C(NCc1c(O)ccc2ccccc12)c1ccccc1 | inactive: -3.71% | –
COc1ccc(-c2noc(CSc3nnc(C)n3-c3ccc(OC)cc3)n2)cc1 | – | inconclusive: 22.4 µM [activator, single point]
Cn1nnnc1SCCCNCc1ccccc1OCc1ccccc1Cl | inactive: -1.9% | –
COc1ccc(-c2oc3cccnc3c2C#CC2(O)CCCCC2)cc1 | – | inconclusive: 28.2 µM [activator, single point]
CN(C(=O)CCl)C1CCCc2ccccc21 (centres undefined) | – | inconclusive: 0.891 µM [activator, full curve, poor fit]
O=C(OCc1nnc(-c2ccc(Cl)cc2)o1)c1ccncc1 | – | inconclusive: 50.1 µM [activator, single point]
COc1ccc(-c2ccc3[nH]c4c(c3c2)CCN2C[C@@H]([C@H](C)OC(=O)Nc3cc(Cl)cc(Cl)c3)[C@@H](N(C)C(=O)Nc3cc(Cl)cc(Cl)c3)C[C@@H]42)cc1 | – | inconclusive: 50.1 µM [activator, single point]
COc1ccccc1C(=O)n1ccc2ccc(-c3ccc4ccn(Cc5ccc(C#N)cc5)c4c3)cc21 | inactive: 34.7% | –
NC(=NC(=O)c1ccc(Cl)cc1)N1N=CCC1c1ccccc1 (centres undefined) | inactive: 4.98% | –
COCCCNC(=O)C(=O)Nc1c2c(nn1-c1cccc(Cl)c1)CSC2 | – | inconclusive: 50.1 µM [activator, single point]
COC(=O)c1cc(NC(=O)CC2SC(=Nc3ccccc3)N(CCc3c[nH]c4ccccc34)C2=O)cc(C(=O)OC)c1 (centres undefined) | – | inconclusive: 4.47 µM [activator, full curve, poor fit]
COC(=O)[C@]12C[C@H](CC(=O)NCc3ccccc3)C(=O)N(Cc3ccco3)C1=C[C@H](C(C)(C)C)O[C@@H]2C | – | inconclusive: 22.4 µM [activator, single point]
C[C@H](NC(=O)c1nc[nH]c1C(=O)N[C@@H](C)c1ccccc1)c1ccccc1 | – | inconclusive: 50.1 µM [activator, single point]
O=C(CSc1nnc(-c2ccc(O)cc2)o1)c1ccc(Br)cc1 | inactive: -5.33% | –
O=[N+]([O-])c1ccc(-c2c(-c3ccccc3)ncc3cc(F)ccc23)cc1 | – | inconclusive: 44.7 µM [activator, single point]
